Results as given in PMC4336329 (PLoS ONE, 2015).
Screen size: about 310,000 compounds; about 2,200 (0.71%) showed an effect of 50% or more. The effect is printed as a negative number. This is one part of the list.

Molecular target: human ether-à-go-go-related gene (hERG) potassium channel (human, UniProt Q12809)
Experiment: primary screen, population patch clamp on CHO cells stably expressing hERG

Sequence of human ether-à-go-go-related gene (hERG) potassium channel (Q12809 whole entry, looked up): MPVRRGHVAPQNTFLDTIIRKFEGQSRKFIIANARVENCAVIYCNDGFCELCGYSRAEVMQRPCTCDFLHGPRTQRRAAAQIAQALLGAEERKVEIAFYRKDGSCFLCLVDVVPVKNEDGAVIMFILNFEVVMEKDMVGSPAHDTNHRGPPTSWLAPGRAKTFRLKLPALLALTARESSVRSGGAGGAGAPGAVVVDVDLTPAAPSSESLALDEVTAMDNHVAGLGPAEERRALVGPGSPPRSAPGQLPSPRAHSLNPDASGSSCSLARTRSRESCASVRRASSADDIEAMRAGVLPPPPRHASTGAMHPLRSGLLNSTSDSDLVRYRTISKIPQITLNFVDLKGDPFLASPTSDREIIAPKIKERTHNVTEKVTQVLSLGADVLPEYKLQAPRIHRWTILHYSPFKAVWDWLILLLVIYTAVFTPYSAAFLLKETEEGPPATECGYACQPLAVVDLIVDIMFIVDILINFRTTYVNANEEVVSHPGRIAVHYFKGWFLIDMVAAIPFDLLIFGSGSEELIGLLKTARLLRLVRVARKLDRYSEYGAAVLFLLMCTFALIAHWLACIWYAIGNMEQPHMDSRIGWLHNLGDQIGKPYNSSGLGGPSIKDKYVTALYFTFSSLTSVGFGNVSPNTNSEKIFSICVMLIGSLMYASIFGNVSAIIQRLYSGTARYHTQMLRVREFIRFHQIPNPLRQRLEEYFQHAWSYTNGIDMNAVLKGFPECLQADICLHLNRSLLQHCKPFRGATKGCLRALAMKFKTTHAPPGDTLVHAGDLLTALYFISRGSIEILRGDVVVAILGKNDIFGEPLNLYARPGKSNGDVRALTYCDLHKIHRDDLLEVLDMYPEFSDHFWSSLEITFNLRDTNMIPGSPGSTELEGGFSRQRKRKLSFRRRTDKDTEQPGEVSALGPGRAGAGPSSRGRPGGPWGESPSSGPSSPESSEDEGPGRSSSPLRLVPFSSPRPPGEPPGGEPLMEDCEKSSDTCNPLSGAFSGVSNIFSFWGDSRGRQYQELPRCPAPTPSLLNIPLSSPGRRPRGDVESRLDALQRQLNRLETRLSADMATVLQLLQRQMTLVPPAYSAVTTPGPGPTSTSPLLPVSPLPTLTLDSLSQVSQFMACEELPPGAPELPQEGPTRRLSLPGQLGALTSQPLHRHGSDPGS

Row | SMILES | hERG current change (%, negative = inhibition) at 1uM
1 | CC1CCCN(C(=O)c2cccc(S(=O)(=O)Nc3cc(C(F)(F)F)ccc3Cl)c2)C1 (stereo not drawn) | 6.51%
2 | CC1CCCCC1NC(=O)c1cncc(Br)c1 (stereo not drawn) | 16%
3 | O=C(Nc1nnc(S(=O)(=O)N2CCCC2)s1)c1ccccc1F | 12.3%
4 | CC(=O)Cn1ncc(N2CCCCC2)c(Cl)c1=O | 15.4%
5 | Cc1ccc(S(=O)(=O)N(C)c2ccc(OC(=O)c3ccc(=O)[nH]c3)cc2)cc1 | 9.07%
6 | O=C1/C(=C/c2cccs2)Sc2ccccc21 | 10.5%
7 | CCN(CC)CCOC(=O)c1ccc2c(c1)OCCO2.Cl | 0.928%
8 | C(=Nc1ccc(N2CCOCC2)cc1)c1c[nH]c2ccccc12 | 14.6%
9 | Cc1c(C(=O)N2CCC3(CC2)OCCO3)oc2ccccc12 | -4.89%
10 | CCOC(=O)N1CCN(C(=O)C(C)n2nc(C)n3c(cc4sccc43)c2=O)CC1 (stereo not drawn) | 5.91%
11 | Nc1nonc1-n1nnc(C(=O)N/N=C/c2cccc(Cl)c2)c1-c1ccc2c(c1)OCO2 | -1.95%
12 | CC(C)CNC1=CC(=O)CC(c2ccco2)C1 (stereo not drawn) | 14.5%
13 | CC1=NN(c2ccccc2)C(=O)C1(C)C | 8.96%
14 | COc1ccc(N2C(=O)CSC2c2cccc(F)c2)c(OC)c1 (stereo not drawn) | 11.7%
15 | CCOC(=O)c1c(CN2CCN(c3ccccc3)CC2)oc2ccc(O)cc12 | 12.6%
16 | Cc1ccc(S(=O)(=O)CCC(=O)OCC(=O)N2CCN(S(=O)(=O)c3ccccc3)CC2)cc1 | 9.95%
17 | Cc1noc2ncnc(Sc3ccc(Cl)cc3)c12 | 14.4%
18 | O=C(COc1ccc(Cl)cc1)NNC(=O)CSc1nncs1 | 13.1%
19 | COc1ccccc1CC(=O)NN1C(=O)c2ccccc2C1=O | 14.6%

Row | SMILES | hERG current change (%, negative = inhibition) at 1uM
20 | O=C(N/N=C/c1cccc(O)c1)c1ccc(COc2cccc3cccnc23)cc1 | 14.1%
21 | Cc1ccc(CN(Cc2ccco2)C(=S)NCC(=O)O)cc1 | 6.44%
22 | Cc1cc(NC(=O)CSc2nnc3c(C)cc4c(C)ccc(C)c4n23)no1 | 1.95%
23 | COc1cc(C2NC(=O)NC(c3ccccc3)=C2C(C)=O)ccc1OCC#N (stereo not drawn) | 4.82%
24 | CCN(CC)c1ccc(/C=N/NC(=O)c2nnn(-c3nonc3N)c2-c2ccc(C)cc2)cc1 | 11.7%
25 | O=C(O)CC1C(=O)NCCN1Cc1ccc(F)c(F)c1 (stereo not drawn) | 12.3%
26 | Cc1cccc(NC(=O)CSc2ncnc3c2oc2ccccc23)c1 | 8.31%
27 | Cc1ccc(Cc2nnc(SCC(=O)Nc3ccccc3)[nH]c2=O)cc1 | 10.2%
28 | CCOc1cccc(N2CCN(CCNC(=O)Nc3ccc(C)cc3)CC2)c1C | -8.62%
29 | CC(C)C(NC(=O)OCc1ccccc1)C(=O)OCC(=O)NC1CC1 (stereo not drawn) | 11.3%
30 | Cn1c(C(=O)NCCCN2CCN(c3ccccc3F)CC2)cc2c(=O)n(C)c3ccccc3c21 | 7.26%
31 | CCNC(=O)CN(c1ccccc1)S(=O)(=O)c1ccc(Cl)cc1 | 10.7%
32 | O=C(C1COc2ccccc2O1)N1CCN(c2ccccc2)CC1 (stereo not drawn) | -2.6%
33 | C[n+]1cccc(C(=O)[O-])c1 | 12.8%
34 | Cc1noc(C)c1CSc1nc2ccccc2c(=O)n1-c1ccc(Cl)cc1 | -1.1%
35 | Cc1ccc(C(=O)Nc2ccccc2)cc1S(=O)(=O)N1CCN(C)CC1 | 12.2%
36 | COc1ccc(N(CC(=O)Nc2cc(C)ccc2C)S(=O)(=O)c2c(C)noc2C)cc1 | 12.4%
37 | Cn1ccnc1SCC(=O)Nc1nc2ccccc2s1 | -11.8%
38 | CCOC(=O)c1cnc(COc2ccccc2Cl)[nH]c1=O | 12.3%

Row | SMILES | hERG current change (%, negative = inhibition) at 1uM
39 | O=c1c2ccccc2c(C=Nc2ccc(S(=O)(=O)Nc3ncccn3)cc2)c(O)n1-c1cccc(Cl)c1 | 14.3%
40 | CC1(C)CC(=O)C=C(NCc2cccnc2)C1 | 10.2%
41 | COc1cc(CO)ccc1OCc1ccc(Cl)nc1 | -2.78%
42 | CC(=O)NS(=O)(=O)c1ccc(Nc2ccc([N+](=O)[O-])c3nonc23)cc1 | 7.81%
43 | CC(=O)c1cc(F)c(N2CCN(C(=O)COc3ccc(F)cc3)CC2)cc1C | -38.2%
44 | CCOC(=O)c1ccc(NC(=O)CNC(=O)C23CC4CC(CC(C4)C2)C3)cc1 | 13.3%
45 | C(/C=C/C=C/Nc1ccccc1)=Nc1ccccc1 | 4.56%
46 | CCOc1ccc(/C=N/Nc2ccccn2)cc1OC | -3.7%
47 | CCC(C)(C)n1nnnc1C(c1cc(OC)ccc1OC)N1CCN(Cc2ccccc2)CC1 (stereo not drawn) | 2.89%
48 | COc1ccc(CC(=O)NC(C)c2nnc(SCC(=O)Nc3cc(C)ccc3OC)n2C)cc1 (stereo not drawn) | 8.52%
49 | CC12C(=O)N(NC(=O)c3ccncc3)C(=O)C1C1C=CC2C1 (stereo not drawn) | 13.5%
50 | CCCCN(C(=O)c1cccc(-n2cnnn2)c1)c1c(N)n(CC(C)C)c(=O)[nH]c1=O | 2.91%
51 | CCN(CC)CCNC(=O)/C(=N\O)c1ccccn1 | 14.8%
52 | O=C(COc1ccccc1[N+](=O)[O-])N/N=C/c1ccc(O)cc1 | 5.18%
53 | CC1(C)CC(=O)C(N=Nc2ccc(S(=O)(=O)N3CCCCCC3)cc2)=C(O)C1 | 3.82%
54 | CCOC(=O)c1ccc(NC(=O)Nc2ccc(F)cc2)cc1 | 11.3%
55 | CC(=O)NCCNc1nc2c(-c3cccc(C(F)(F)F)c3)nnn2c2ccccc12 | 15.1%
56 | O=C(NCc1ccccc1)C(=O)NCC1OCCCN1S(=O)(=O)c1cccs1 (stereo not drawn) | 16.3%
57 | O=C(Nc1ccccc1Cc1ccccc1)c1ccccc1F | -2.97%
